Laboratory results taken from PubChem BioAssay (NCI).
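How tested: cells in 96-well plates exposed to compound for 48 hours at five concentrations. The concentration for 50% growth inhibition is given as GI50.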 The source holds more than one record for some entries. They are shown here; other results are not. There may be further records. For part of these data: The tests behind the records often covered other concentration ranges, which the source does not state; a value can be the end of its range. What stands in brackets tells the records apart. Letters count within one entry. For part of these data: Values that stand side by side repeat one measurement across runs, samples, wells, individuals or studies.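 TGI is the concentration that stops growth completely.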

Columns and labels:
Experiment in all cases: NCI-60 cell line screen, 48 h
SK-OV-3 ovarian = tested on: SK-OV-3 ovarian
OVCAR-3 ovarian = tested on: OVCAR-3 ovarian
NCI-H460 lung = tested on: NCI-H460 lung
NCI-H226 lung = tested on: NCI-H226 lung
SF-268 CNS = tested on: SF-268 CNS
NCI-H23 lung = tested on: NCI-H23 lung
U251 CNS = tested on: U251 CNS
HCT-116 colon = tested on: HCT-116 colon
EKVX NSCLC = tested on: EKVX NSCLC
HS 578T breast = tested on: HS 578T breast
HCC-2998 colon = tested on: HCC-2998 colon
HT29 colon = tested on: HT29 colon
TK-10 renal = tested on: TK-10 renal
A549 NSCLC = tested on: A549 NSCLC
HCT-15 colon = tested on: HCT-15 colon
MCF7 breast = tested on: MCF7 breast
CCRF-CEM leukemia = tested on: CCRF-CEM leukemia
SK-MEL-2 melanoma = tested on: SK-MEL-2 melanoma
OVCAR-4 ovarian = tested on: OVCAR-4 ovarian
SF-295 CNS = tested on: SF-295 CNS
MDA-MB-231 breast = tested on: MDA-MB-231 breast
LOX IMVI melanoma = tested on: LOX IMVI melanoma
HOP-92 NSCLC = tested on: HOP-92 NSCLC
SK-MEL-5 melanoma = tested on: SK-MEL-5 melanoma
RPMI-8226 leukemia = tested on: RPMI-8226 leukemia
CAKI-1 renal = tested on: CAKI-1 renal

Compound: COc1cccc(-c2cc(=O)c3cc(N(C)C)ccc3[nH]2)c1
- TGI (SK-OV-3 ovarian): 925 nM [sample A, mean of 2 tests] and 15.8 µM [sample B, 1 test] and 748 nM [sample B, mean of 2 tests]
- TGI (OVCAR-3 ovarian): 33.7 nM, 6.36 µM [sample A, 1 test] and 7.1 nM, 11.2 µM [sample B, 1 test]
- TGI (NCI-H460 lung): > 100 µM [sample A, 1 test] and 1.35 µM [sample A, mean of 2 tests] and 14.7 µM [sample B, 1 test] and 4.55 µM [sample B, mean of 2 tests]
- TGI (NCI-H226 lung): 103 nM, 254 nM [sample A] and 114 nM, 328 nM [sample B]
- GI50 (SF-268 CNS): 16.3 nM [sample A, 1 test] and 33.2 nM [sample A, mean of 2 tests] and 11.9 nM [sample B, 1 test] and 5.39 nM [sample B, mean of 2 tests]
- TGI (SF-268 CNS): > 100 µM [sample A, 1 test] and 948 nM [sample A, mean of 2 tests] and 19.9 µM [sample B, 1 test] and 421 nM [sample B, mean of 2 tests]
- TGI (NCI-H23 lung): 930 nM, > 100 µM [sample A] and 980 nM [sample B]
- TGI (U251 CNS): > 100 µM [sample A, 1 test] and 266 nM [sample A, mean of 2 tests] and 20.5 µM [sample B, 1 test] and 600 nM [sample B, mean of 2 tests]
- TGI (HCT-116 colon): 1.2 µM, > 100 µM [sample A, 1 test] and 1.02 µM, 12.7 µM [sample B, 1 test]
- GI50 (EKVX NSCLC): 14.5 nM [sample A, 1 test] and 172 nM [sample A, mean of 2 tests] and 13.6 nM [sample B, 1 test] and 81.6 nM [sample B, mean of 2 tests]
- TGI (EKVX NSCLC): > 100 µM [sample A, 1 test] and 7.84 µM [sample A, mean of 2 tests] and 22.3 µM [sample B, 1 test]
- TGI (HS 578T breast): 77.7 nM [sample A, mean of 2 tests] and 8.05 µM [sample B, 1 test]
- TGI (HCC-2998 colon): 12.5 nM [sample A, 1 test] and 269 nM [sample A, mean of 2 tests] and 35.9 nM [sample B, 1 test] and 55.5 nM [sample B, mean of 2 tests]
- TGI (HT29 colon): 52 nM, 13.8 nM [sample A] and 45.6 nM, 57.8 nM [sample B]
- GI50 (TK-10 renal): 77.2 nM [sample A, 1 test] and 323 nM [sample A, mean of 2 tests] and 51 nM [sample B, 1 test] and 56.9 nM [sample B, mean of 2 tests]
- GI50 (A549 NSCLC): 14.3 nM [sample A, 1 test] and 45.9 nM [sample A, mean of 2 tests] and 42.3 nM [sample B, 1 test] and 21.9 nM [sample B, mean of 2 tests]
- TGI (HCT-15 colon): 38.3 nM, 79.9 nM [sample A] and 54.4 nM, 7.31 µM [sample B]
- GI50 (MCF7 breast): 23.9 nM [sample A, 1 test] and 101 nM [sample A, mean of 2 tests] and 27.2 nM [sample B, 1 test] and 46.7 nM [sample B, mean of 2 tests]
- TGI (MCF7 breast): > 100 µM [sample A, 1 test] and 8.63 µM [sample A, mean of 2 tests] and 56 µM [sample B, 1 test]
- TGI (CCRF-CEM leukemia): 3.38 µM [sample A, mean of 2 tests] and 15.7 nM [sample B, 1 test]
- TGI (SK-MEL-2 melanoma): > 100 µM [sample A, 1 test] and 583 nM [sample A, mean of 2 tests] and > 100 µM [sample B, 1 test] and 1.93 µM [sample B, mean of 2 tests]
- GI50 (OVCAR-4 ovarian): > 100 µM [sample A, 1 test] and 286 nM [sample B, 1 test]
- TGI (SF-295 CNS): > 100 µM [sample A, 1 test] and 44 nM [sample A, mean of 2 tests] and 27.9 nM [sample B, mean of 2 tests]
- TGI (MDA-MB-231 breast): 6.9 µM, 75.5 nM [sample A] and 920 nM [sample B]
- TGI (LOX IMVI melanoma): 92.8 µM [sample A, 1 test] and 1.31 µM [sample A, mean of 2 tests] and 86.8 µM [sample B, 1 test] and 934 nM [sample B, mean of 2 tests]
- GI50 (HOP-92 NSCLC): 26.4 nM [sample A, 1 test] and 96.2 nM [sample A, mean of 2 tests] and 29.8 nM [sample B, 1 test] and 6.29 nM [sample B, mean of 2 tests]
- TGI (HOP-92 NSCLC): > 100 µM [sample A, 1 test] and 2.18 µM [sample A, mean of 2 tests] and 77.1 µM [sample B, 1 test] and 929 nM [sample B, mean of 2 tests]
- TGI (SK-MEL-5 melanoma): > 100 µM [sample A, 1 test] and 230 nM [sample A, mean of 2 tests] and 27.7 µM [sample B, 1 test] and 126 nM [sample B, mean of 2 tests]
- TGI (RPMI-8226 leukemia): 6.33 µM [sample A] and 6.51 µM, 28.7 nM [sample B]
- GI50 (CAKI-1 renal): 65.7 nM [sample A, mean of 2 tests] and 5.88 nM [sample B, mean of 2 tests]
